In the antibiotic and cytotoxicity screens of Wong et al. (2023) one finds cytotoxicity call and growth inhibition call data, which are given here for 25 compounds.

One assay relates to HSkMC. The assay can be described thus: cytotoxicity call (relative viability < 0.9). The settings on record: 10 µM.
Another assay deals with HepG2. The assay can be described thus: cytotoxicity call (relative viability < 0.9). Particulars: 10 µM.
The subject of the next assay is S. aureus RN4220. The assay can be described thus: growth inhibition call (relative growth <= 0.2). The settings on record: 50 µM.

Each structure is given as a SMILES string. The list shows a part of the results.

As to `C[C@H]1CN([C@@H](C)CO)C(=O)c2cc(C#CC3CCCC3)cnc2O[C@@H]1CN(C)C(=O)Cc1ccccn1`, the cytotoxicity call with HSkMC and with HepG2 was “inactive” throughout. For the same compound, in the assay on S. aureus RN4220, the growth inhibition call was “inactive”.
Consider `CN1CCN(C(=O)C[C@@H]2CC[C@@H](NC(=O)Cc3ccccn3)[C@@H](CO)O2)CC1`, for which the cytotoxicity call with HSkMC and in the assay with HepG2 was “inactive” throughout. The growth inhibition call in the assay on S. aureus RN4220 is “inactive”.
Turning to `C[C@@H]1CN([C@@H](C)CO)C(=O)c2cc(N(C)C)ccc2O[C@@H](C)CCCCO[C@@H]1CN(C)C(=O)CCCN(C)C`, the cytotoxicity call in the assay with HSkMC and with HepG2 was “inactive” each time. Besides, the growth inhibition call with S. aureus RN4220 was “inactive”.
Take `Cc1noc(C)c1S(=O)(=O)Nc1ccc2c(c1)C(=O)N([C@@H](C)CO)C[C@H](C)[C@@H](CN(C)C)OCCCC[C@@H](C)O2`: the cytotoxicity call in the assay on HSkMC and with HepG2 was “inactive” throughout. For the same compound, the growth inhibition call in the assay with S. aureus RN4220 was “inactive”.
In the case of `C[C@@H]1CCCCO[C@@H](CN(C)Cc2ccc(C(F)(F)F)cc2)[C@H](C)CN([C@@H](C)CO)C(=O)c2cc(NS(=O)(=O)c3ccccc3)ccc2O1`, in the assay on HSkMC, the cytotoxicity call is “inactive”. Further, the cytotoxicity call with HepG2 was “active”. Moreover, in the assay on S. aureus RN4220, the growth inhibition call is “inactive”.
On to `CCCN(C)C[C@H]1Oc2cc(C#Cc3ccc(OC)cc3)ccc2S(=O)(=O)N([C@H](C)CO)C[C@H]1C`, for which the cytotoxicity call with HSkMC and in the assay on HepG2 was “inactive” in each case. Also, the growth inhibition call in the assay with S. aureus RN4220 was “inactive”.
For the compound `COc1ccc(S(=O)(=O)N(C)C[C@H]2Oc3ccc(NS(=O)(=O)c4ccccc4)cc3CC(=O)N([C@H](C)CO)C[C@H]2C)cc1`, the cytotoxicity call with HSkMC and in the assay with HepG2 was “inactive” throughout. In addition, the growth inhibition call in the assay on S. aureus RN4220 was “inactive”.
Consider `CC(C)(O)C#Cc1ccc([C@H]2[C@H]3CN(S(C)(=O)=O)CCCCN3[C@H]2CO)cc1`, for which the cytotoxicity call in the assay with HSkMC and in the assay on HepG2 was “inactive” throughout. For the same compound, in the assay with S. aureus RN4220, the growth inhibition call was “inactive”.
Take `C[C@@H]1CCCCO[C@@H](CN(C)C(=O)Cc2ccccc2)[C@H](C)CN([C@H](C)CO)C(=O)c2cc(NS(=O)(=O)c3ccc(F)cc3)ccc2O1`: the cytotoxicity call in the assay with HSkMC and in the assay on HepG2 was “inactive” each time. In addition, the growth inhibition call with S. aureus RN4220 is “inactive”.
For `O=C(NCC1CC1)c1cc2c(c(-c3cccc(-c4ccccc4F)c3)n1)[C@@H](CCO)N(C(=O)CC1CC1)C2`, the cytotoxicity call in the assay with HSkMC and in the assay on HepG2 was “inactive” in each case. Also, in the assay with S. aureus RN4220, the growth inhibition call is “inactive”.
On to `C[C@H](CO)N1C[C@H](C)[C@@H](CN(C)S(=O)(=O)c2ccccc2)Oc2ccc(NC(=O)CCCN(C)C)cc2CC1=O`, for which the cytotoxicity call in the assay with HSkMC and in the assay with HepG2 was “inactive” each time. Moreover, in the assay with S. aureus RN4220, the growth inhibition call is “inactive”.
For the compound `COCCNC(=O)C[C@@H]1CC[C@@H](NS(=O)(=O)c2ccc(C)cc2)[C@H](CO)O1`, the cytotoxicity call in the assay with HSkMC and in the assay with HepG2 was “inactive” throughout. Moreover, the growth inhibition call in the assay with S. aureus RN4220 was “inactive”.
For `C[C@@H]1CN([C@@H](C)CO)C(=O)c2cccc(NC(=O)Nc3ccccc3)c2O[C@H]1CN(C)CC1CCCCC1`, the cytotoxicity call in the assay with HSkMC and in the assay on HepG2 was “inactive” throughout. Further, the growth inhibition call with S. aureus RN4220 was “inactive”.
Consider `Cl.Cl.N=C(N)N`, for which the cytotoxicity call with HSkMC and in the assay with HepG2 was “inactive” throughout. For the same compound, in the assay on S. aureus RN4220, the growth inhibition call was “inactive”.
On to `C[C@H](C[C@H](N)C(=O)O)C(=O)O`, for which the cytotoxicity call in the assay with HSkMC and with HepG2 was “inactive” in each case. In addition, the growth inhibition call in the assay on S. aureus RN4220 was “inactive”.
Consider `C[C@@H]1CCCCO[C@H](CN(C)CC2CCCCC2)[C@@H](C)CN([C@H](C)CO)C(=O)c2cc(NC(=O)Cc3ccccc3)ccc2O1`, for which the cytotoxicity call in the assay on HSkMC and in the assay with HepG2 was “inactive” each time. The growth inhibition call in the assay with S. aureus RN4220 was “inactive”.
Turning to `C[C@H](CO)N1C[C@H](C)[C@H](CN(C)C(=O)Nc2ccc(C(F)(F)F)cc2)Oc2c(NC(=O)Nc3ccc4c(c3)OCO4)cccc2C1=O`, the cytotoxicity call in the assay on HSkMC and in the assay with HepG2 was “inactive” each time. The growth inhibition call in the assay with S. aureus RN4220 was “inactive”.
Consider `C[C@@H]1CCCCO[C@@H](CN(C)S(=O)(=O)c2ccc(Cl)cc2)[C@H](C)CN([C@@H](C)CO)C(=O)c2cc(NC(=O)Cc3ccccc3)ccc2O1`, for which the cytotoxicity call with HSkMC and in the assay with HepG2 was “inactive” each time. Moreover, in the assay on S. aureus RN4220, the growth inhibition call was “inactive”.
In the case of `CCOC(=O)CCCCCC(=O)Nc1ccc2c(c1)C(=O)N([C@@H](C)CO)C[C@@H](C)[C@H](CN(C)C(=O)c1ccncc1)OCCCC[C@H](C)O2`, the cytotoxicity call in the assay with HSkMC and in the assay on HepG2 was “inactive” throughout. In the assay on S. aureus RN4220, the growth inhibition call was “inactive”.
Take `CC(C)[C@@H](CC[C@@H](C)[C@H]1CC[C@H]2[C@@H]3[C@H](O)C[C@H]4C[C@@H](NCCCNCCCCNCCCN)CC[C@]4(C)[C@H]3CC[C@]12C)OS(=O)(=O)O`: the cytotoxicity call in the assay with HSkMC and with HepG2 was “active” in each case. Also, the growth inhibition call in the assay with S. aureus RN4220 was “inactive”.
Consider `CO[C@H]1CN(C)C(=O)c2cc(NS(C)(=O)=O)ccc2OC[C@H](C)N(C(=O)C2CCCCC2)C[C@H]1C`, for which the cytotoxicity call in the assay with HSkMC and in the assay with HepG2 was “inactive” in each case. In the assay on S. aureus RN4220, the growth inhibition call was “inactive”.
Take `Cc1noc(C)c1NC(=O)N(C)C[C@H]1OCCCC[C@@H](C)Oc2ccc(NC(=O)C3CCCCC3)cc2C(=O)N([C@H](C)CO)C[C@@H]1C`: the cytotoxicity call in the assay on HSkMC and in the assay on HepG2 was “inactive” each time. The growth inhibition call in the assay on S. aureus RN4220 was “inactive”.
With `C[C@@H]1CN([C@H](C)CO)C(=O)c2c(c3ccccc3n2C)-c2ccccc2CO[C@H]1CN(C)C(=O)Nc1ccccc1C(F)(F)F`, the cytotoxicity call with HSkMC and in the assay with HepG2 was “inactive” each time. Moreover, the growth inhibition call in the assay on S. aureus RN4220 was “inactive”.
For `C[C@@H]1CN([C@H](C)CO)C(=O)c2cc(NC(=O)C3CCCCC3)ccc2O[C@@H](C)CCCCO[C@@H]1CN(C)CC1CCCCC1`, the cytotoxicity call with HSkMC is “inactive”. Further, in the assay with HepG2, the cytotoxicity call was “active”. The growth inhibition call in the assay with S. aureus RN4220 is “inactive”.
Regarding `COc1ccc2c3c([nH]c2c1)[C@@H](CO)N(C[C@]13CN(CC2CCCCC2)C1)C(=O)Nc1cccc(c1)F`, the cytotoxicity call in the assay on HSkMC (human skeletal muscle cells) and in the assay on HepG2 was “active” in each case. The growth inhibition call in the assay on S. aureus RN4220 is “inactive”.
